Laboratory results taken from PubChem BioAssay AID720542 (National Center for Advancing Translational Sciences (NCATS), 2013).
Among all 360,000 compounds or so, about 740 (0.21%) were called active. This list was built around the results that the source calls inconclusive (neither active nor inactive); the mix of calls is not that of the screen. The call rests on the fitted dose curve; in most records, active means well fitted inhibition curve with a large enough effect; inconclusive means small, poorly fitted or top-dose-only effect; inactive means no such curve, though single readings can be large or run the other way. No potency is given beside an inconclusive call; the fits are too rough.

system: Plasmodium falciparum AMA1 (3D7) - RON2 peptide interaction; assay: qHTS for Inhibitors of AMA1-RON; Towards Development of Antimalarial Drug Lead: Primary Screen; conditions: AlphaScreen AMA1-biotinylated RON2 peptide binding; activity change, negative = inhibition: at 58.2 µM (top of the series) unless noted; further: nearly all actives have a fitted effect of over 45% in size;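 on activity change, negative = inhibition: 0% = vehicle wells and -100% = peptide control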
In short: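 AMA1 (3D7) with his tag at 25 nM final met compounds first, then biotinylated RON2 peptide at 25 nM; detection used donor plus acceptor beads, 10 µg/mL apiece, read by AlphaScreen after 30 min at room temperature.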
Potency means the concentration at half of the fitted maximal effect; tags describe the fitted curve by direction and shape.

SMILES | Potency | activity change, negative = inhibition
CN(CC(=O)Nc1ccccc1Cl)C(=O)CSc1nnc(N)s1 | inactive | –
COc1ccc(OC)c(C(=O)COC(=O)CN2C(=O)NC3(CCCCC3C)C2=O)c1 (stereo unspecified) | inconclusive [inhibitor, single point] | –
O=C1C(c2ccccc2)=C(N2CC2)c2ccccc21 | active: 28.2 µM | –
COc1ccc(CN2C(=O)c3cccnc3C2Nc2cc(Cl)ccc2OC)cc1 (stereo unspecified) | inconclusive [inhibitor, single point] | –
O=C(Nc1ccccc1)c1ccc(F)c(S(=O)(=O)N2CCOCC2)c1 | inactive | –
COc1ccccc1CN1CCN(C(c2ccccc2)c2ccccc2)CC1 | inconclusive [inhibitor, partial curve] | –
COc1cc([N+](=O)[O-])cc(/C=C2/SC(=S)N(Cc3ccccc3)C2=O)c1O | inactive | –
O=C(NC1CCSc2ccccc21)c1ccccc1Br (stereo unspecified) | inactive | –
COc1ccc(N2CCCCn3c2nc2c3c(=O)[nH]c(=O)n2C)cc1 | inactive | –
COc1cccc(CNC(=O)[C@@H]2CCCN2C(=O)OC(C)(C)C)c1 | inconclusive [inhibitor, partial curve] | –
Cc1cc(N(C)N)nc(NC(=O)NS(=O)(=O)c2ccccc2Cl)n1 | inactive | –
COc1ccc(N2CCN(CC(=O)N3c4ccccc4CC3C)CC2)cc1 (stereo unspecified) | inconclusive [inhibitor, partial curve] | –
COc1ccc(C(NC(=O)C2CCCCC2)c2c(O)ccc3ccccc23)cc1 (stereo unspecified) | inconclusive [inhibitor, partial curve, poor fit] | –
c1ccc2c(c1)CC1(CCCCC1)n1nnnc1-2 | inconclusive [inhibitor, single point] | –
CC(C)C(=O)O/N=C1\CCS(=O)(=O)c2sccc21 | inactive | –
CC(=O)C1(c2ccccc2)CCN(C(=O)C2CCC(=O)N(CCc3cccc(F)c3)C2)CC1 (stereo unspecified) | inconclusive [inhibitor, single point] | –
COc1cc(NC(=O)c2cccc(Cl)c2)c(OC)cc1NC(=O)CN1CCCCC1 | inconclusive [inhibitor, single point] | –
COc1ccc2c(c1)NC1(O)c3ccccc3C(=O)C21O (stereo unspecified) | inconclusive [inhibitor, single point] | –
N#C/C(=C\c1ccc(-c2ccccc2[N+](=O)[O-])o1)C(=O)Nc1nc(-c2cccs2)cs1 | inconclusive [inhibitor, single point] | –
CN[C@H]1C[C@H]2c3[nH]c4ccc(-c5cccc(C)c5)cc4c3CCN2C[C@H]1[C@H](C)O | inconclusive [inhibitor, partial curve] | –
COc1ccccc1CNC(=O)c1ccc(-c2ccccc2C(F)(F)F)o1 | inactive | –
COc1ccc(-c2[nH]c(-c3ccccc3)nc2SCC(=O)NC2CCCC2)cc1 | inconclusive [inhibitor, partial curve] | –
Cc1ccc2ccccc2c1NC(=O)Cn1nnc(-c2cccnc2)n1 | inconclusive [inhibitor, full curve, poor fit] | –
COc1ccc(CCNC(=O)COC(=O)Cn2cnc3c2c(=O)n(C)c(=O)n3C)cc1 | inconclusive [inhibitor, single point] | –

SMILES | Potency | activity change, negative = inhibition
CC1CCCCN1CC(=O)Nc1ccc(N2CCCCCC2)cc1 (stereo unspecified) | active: 28.2 µM | –
CC1(Oc2ccc3ccccc3c2)CCN(Cc2cccn2-c2nccs2)C1 (stereo unspecified) | inconclusive [inhibitor, partial curve] | –
Cc1cccc(OCCN2C(=O)c3ccccc3C2=O)c1 | inactive | –
COc1ccc(-n2nnnc2C(CCSC)N2CCC3(CC2)C(=O)NCN3c2ccccc2)cc1 (stereo unspecified) | inconclusive [inhibitor, single point] | –
CC(=O)N1c2ccccc2CCc2ccc(N)cc21 | inconclusive [inhibitor, single point] | –
CC(=O)Nc1ccc2c(c1)OCCO2 | inactive | –
COc1ccc2nc(Nc3nc(C)c(C(C)=O)s3)sc2c1 | inconclusive [inhibitor, single point] | –
O=[N+]([O-])c1cccc(-n2cccc2/C=N/Nc2nc(N3CCCCC3)nc(N3CCCCC3)n2)c1 | inconclusive [inhibitor, partial curve] | –
CN1CCN(/N=C/c2c3ccccc3c(Cl)c3ccccc23)CC1 | inconclusive [inhibitor, single point] | –
O=C(C1=C[C@H](c2csc3ccccc23)C[C@H](OCCCCO)O1)N1CCN(Cc2ccc3c(c2)OCO3)CC1 | inconclusive [inhibitor, partial curve] | –
COc1cc(C2SCCS2)cc(Br)c1Oc1ncccc1[N+](=O)[O-] | inconclusive [inhibitor, single point] | –
Cc1cc2nc(C3CCCCC3)c(Cc3ccsc3)n2c(C)c1Br | inconclusive [inhibitor, partial curve] | –
c1ccc(CCNc2ncnc3scc(C4COc5ccccc5O4)c23)cc1 (stereo unspecified) | inconclusive [inhibitor, partial curve] | –
O=[N+]([O-])c1cc(F)cc(F)c1Nc1cc(F)cc(F)c1 | inconclusive [inhibitor, single point] | –
Cc1ccc(-n2nc(C)c3c2OC(N)=C(C#N)C3c2ccc(C)o2)cc1 (stereo unspecified) | inconclusive [inhibitor, partial curve] | –
Fc1ccc(-n2c(-c3cc(C4CC4)[nH]n3)n[nH]c2=S)cc1Cl | inactive | –
Cc1c(F)cccc1NS(=O)(=O)c1ccc(OCCNS(C)(=O)=O)cc1 | inactive | –
CCc1ccc2c(CN3CCc4cc(OC)c(OC)cc4C3)cc(=O)oc2c1 | inconclusive [inhibitor, full curve] | –
O=C(NCc1ccco1)c1cnn2c(C(F)(F)F)cc(-c3cccs3)nc12 | inactive | –
COc1ccccc1S(=O)(=O)N(C)C[C@@H]1OCc2cnnn2CCCC(=O)N([C@@H](C)CO)C[C@H]1C | inactive | –
Cc1cc(C(=O)OCC(=O)c2cccs2)ccc1[N+](=O)[O-] | inconclusive [inhibitor, partial curve, poor fit] | –
CCOC(=O)c1[nH]c(Cc2[nH]c(C(=O)OCC)c(C)c2CCC(=O)OC)c(CCC(=O)OC)c1C | inconclusive [inhibitor, partial curve] | –
CCn1c(O)c(C=NC2CCCC(C)C2C)sc1=S (stereo unspecified) | inconclusive [inhibitor, partial curve] | –
Cc1cc(OCCn2ccnc2)ccc1C(C)C | inconclusive [inhibitor, single point] | –

SMILES | Potency | activity change, negative = inhibition
Nc1nc(Nc2ccccc2)nc(NCc2ccco2)c1[N+](=O)[O-] | inconclusive [inhibitor, partial curve] | –
CCCN1C(=O)/C(=C/c2ccc(C)o2)SC1=Nc1ccc(OC)cc1 | inconclusive [inhibitor, partial curve] | –
Cc1cccc(C)c1NC(=O)c1ccccc1C(=O)O | inconclusive [inhibitor, partial curve] | –
COc1ccccc1CC(=O)OC(C)C(=O)Nc1ccc(S(=O)(=O)N2CCCCC2)cc1 (stereo unspecified) | – | inactive: 0.43% [at 11.6 µM]
OC1(c2ccc(Cl)cc2)CCN(Cc2cn[nH]c2-c2ccc(F)cc2)CC1 | inactive | –
Cc1ccc(C)c(-n2c3nc(=O)n(C)c(=O)c-3cc3ccccc32)c1 | inactive | –
O=C(Cc1cccs1)Nc1nc(-c2ccccc2)cs1 | inconclusive [inhibitor, single point] | –
CCc1cc2c(=O)[nH]cnc2s1 | inactive | –
COc1ccccc1Nc1nc(N)nc(CN(C)C2CCCCC2)n1 | inconclusive [inhibitor, single point] | –
Cc1ccc(-c2nnc(NC(=O)c3c(F)cccc3Cl)s2)cc1 | inactive | –
O=C(OCc1ccccc1)N1CCC2CC1c1cc(N3CCCCC3)ccc12 (stereo unspecified) | inconclusive [inhibitor, partial curve] | –
CCN(N=O)c1ccc(C=C2C=Cc3ccccc32)cc1 | inconclusive [inhibitor, single point] | –
COc1ccc(-c2cc(C(=O)N3CCOCC3)no2)cc1OC | inconclusive [inhibitor, partial curve] | –
CC1(C)CCCN(C(=O)c2ccc3c(c2NCCO)C(=O)c2ccccc2C3=O)C1 | inconclusive [inhibitor, single point] | –
O=C1C=C(Nc2ccc(O)cc2)C(=O)c2ccccc21 | inconclusive [inhibitor, partial curve] | –
CC(=O)c1nnn(-c2c(F)cccc2F)c1C | inactive | –
O=C(O)c1ncn(Cc2ccccc2)c1C(=O)O | inconclusive [inhibitor, single point] | –
CCOC(=O)CN1C2=NCCN2c2ccccc21 | inactive | –
COc1cc2c(cc1OC)C(=Cc1ccc(N(C)C)cc1)C=C2 | active: 8.91 µM | –
O=C(COC(=O)c1ccc[nH]c1=O)Nc1ccc(N2CCCCC2)cc1 | inactive | –
CC1Cc2ccccc2N1CC(=O)Nc1ccc2c(c1)OC(F)(F)O2 (stereo unspecified) | inconclusive [inhibitor, single point] | –
CN1CCN(c2ccc(C(=O)c3ccc(Br)cc3)cc2[N+](=O)[O-])CC1 | inconclusive [inhibitor, partial curve] | –
Oc1ccc(/C=N/N2CCN(C3c4ccccc4-c4ccccc43)CC2)cc1 | inconclusive [inhibitor, single point] | –
